According to PubChem BioAssay AID1345083 (National Center for Advancing Translational Sciences (NCATS), 2018):
Out of some 94,000 compounds screened, about 6,200 (6.6%) were called active. The shares of active, inactive and inconclusive entries below differ from those in the screen. Calls come from the whole dose curve; as a rule, active = well fitted inhibition curve with a large enough effect; inconclusive = small, poorly fitted or top-dose-only effect; inactive = flat fitted curve, though single readings scatter. Potencies of inconclusive entries are doubtful fits and often do not repeat.

Test: Cytotoxic Profiling in HEK 293 Cell Line of Diverse Libraries Using Quantitative High-Throughput Screening; note: nearly all actives have a fitted effect of over 60% in size
Settings: HEK 293 viability, ATP luminescence (CellTiter-Glo), 48-72 h; activity change, negative = cytotoxicity: at 115 µM (top of the series) unless noted; series mostly up to 115 µM
Procedure, shortened: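 Luminescence from cellular ATP, measured with CellTiter-Glo, indicates HEK 293 viability. Cells plated at 250 cells/well are treated with compound for 48 or 72 hr at 37 degree Celsius before reagent addition.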
% is set by controls: 0 for no effect and ±100 for the full control effect; potency is the fitted concentration of half-maximal effect; tags give direction and shape of the fitted curve.

| SMILES | Potency | activity change, negative = cytotoxicity | outcome |
| --- | --- | --- | --- |
| Cc1cccc(-c2ccc3c(c2)C(=O)N2CC[C@H](NC(=O)c4cccs4)[C@H]2C(=O)N3)c1C | inconclusive: 79.4 µM [inhibitor, partial curve, poor fit] |  |  |
| CC(=O)N1CCCN(C(=O)CC(c2cccc(O)c2)c2cccc(Cl)c2)CC1 (centres undefined) |  | inactive: -1.2% |  |
| COc1ccc(C)cc1NC(=O)CC1CCCN(c2cnn(C)c(=O)c2)C1 (centres undefined) |  | inactive: -2.46% |  |
| O=C(CCC1CCCC1)N1CCC(Cc2nc(C3CC3)n[nH]2)CC1 | inconclusive: 22.4 µM [inhibitor, partial curve, poor fit] |  |  |
| CNC(=O)c1cc2cc(-c3c(C)noc3C)nc(-c3ccccc3OC)c2o1 | inconclusive: 70.8 µM [inhibitor, partial curve, poor fit] |  |  |
| CCn1cc(CN2CCCC(c3nc(C(C)C)no3)CCNC(=O)CC2)cn1 (centres undefined) |  | inactive: -31.2% |  |
| CN(C)c1ccc2ncc(Nc3ccc(Oc4ccccc4)cc3)n2n1 | active: 35.5 µM |  |  |
| O=C(O)CCn1ncc2cc(OCc3ccc(-c4cccc(CO)c4)cc3)ccc21 |  | inactive: -6.52% [at 172 µM] |  |
| COc1ccc(-c2nnc3n2CCN(C(=O)Cc2ccc(F)cc2)C3)cc1 |  | inactive: -7.24% |  |
| Cn1cc(CN2C[C@H](C(=O)Nc3nccs3)C[C@@H]2c2cccc(C(F)(F)F)c2)cn1 | inconclusive: 89.1 µM [inhibitor, partial curve, poor fit] |  |  |
| COc1cccc(C(O)c2nc(C(=O)Nc3ccc4c(c3)NC(=O)CO4)c(C)o2)c1 (centres undefined) | active: 89.1 µM |  |  |
| Cc1cccc(-c2nocc2CCC(=O)N2CCN(c3ccccn3)CC2)c1 | inconclusive: 89.1 µM [inhibitor, single point] |  |  |
| CCNC(=O)c1coc(COc2ccc3c(c2)C(c2cccc(F)c2)N(C(=O)C(C)(C)C)CC3)n1 (centres undefined) | inconclusive: 31.6 µM [inhibitor, partial curve, poor fit] |  |  |
| Cc1nc(CN2C(=O)OC3(CCN(CCc4ccccc4)CC3)C2(C)c2ccccc2)cs1 (centres undefined) | inconclusive: 79.4 µM [inhibitor, partial curve, poor fit] |  |  |
| COc1ccc(-n2c(=O)c(C(=O)NC3CCCCC3)nc3cccnc32)cc1 |  | inactive: -7.64% |  |
| CC(C)C(=O)NCCNC(=O)c1ccc(-c2cccc(C(F)(F)F)c2)cc1 | inconclusive: 79.4 µM [inhibitor, single point] |  |  |
| COc1ccc(C2Cn3nnc(C(=O)N4CCN(C(=O)c5ccccc5F)CC4)c3CO2)cc1 (centres undefined) | inconclusive: 50.1 µM [inhibitor, partial curve, poor fit] |  |  |
| CCOC(=O)[C@@H]1CN(C(=O)OCc2ccccc2)[C@H]2c3ccc(OC)cc3O[C@@H]12 | inconclusive: 89.1 µM [inhibitor, single point] |  |  |
| Cc1noc2ncnc(N3CCN(Cc4ccc(F)c(F)c4)C(CCO)C3)c12 (centres undefined) | inconclusive: 89.1 µM [inhibitor, single point] |  |  |
| COc1ccc(-c2ccc3nnc(CNC(=O)COc4ccc(F)cc4)n3n2)cc1 | inconclusive: 89.1 µM [inhibitor, single point] |  |  |
| C=CCN1CCN(C(=O)[C@@H]2CCCN(Cc3ccccc3)[C@@H]2COC)CC1 | inconclusive: 50.1 µM [inhibitor, partial curve, poor fit] |  |  |
| COc1ccccc1C(=O)N1CCC2(CC1)OC(=O)N(CCOc1ccccc1)C2(C)c1cccnc1 (centres undefined) |  | inactive: -22.9% |  |

| SMILES | Potency | activity change, negative = cytotoxicity | outcome |
| --- | --- | --- | --- |
| CCNC(=O)N1CCOc2ccc(CCC(=O)Nc3ccc(C)cc3)cc2C1 | inconclusive: 31.6 µM [inhibitor, partial curve, poor fit] |  |  |
| O=C(c1nc2c(o1)CCN(Cc1ccccc1F)CC2)N1CCOCC1 | inconclusive: 100 µM [inhibitor, partial curve, poor fit] |  |  |
| COc1ccc(CN2Cc3cc(NC(=O)c4ccc(F)cc4)ccc3OC(C)C2=O)c(OC)c1 (centres undefined) | inconclusive: 89.1 µM [inhibitor, single point] |  |  |
| COc1cccc(-c2cn3cc(C(=O)NCc4ccccc4F)nc3s2)c1 | inconclusive: 50.1 µM [inhibitor, partial curve, poor fit] |  |  |
| O=C(CN1CCCCCC1)N1CC(Oc2ccccc2-c2nc(C3CC3)no2)C1 |  | inactive: -26.2% |  |
| CCCN1CCCC2(Cc3ccccc3CN(C(=O)Cc3ccccc3)C2)C1 (centres undefined) | inconclusive: 89.1 µM [inhibitor, single point] |  |  |
| Cc1ccc(CCNC(=O)c2cc3c(N4CCSCC4)nc(C)cn3n2)cc1 | inconclusive: 50.1 µM [inhibitor, partial curve, poor fit] |  |  |
| c1ccc(-c2cc(CC3(NCc4ccco4)COC3)no2)nc1 |  | inactive: 4.92% [at 172 µM] |  |
| CCNC(=O)CCc1c(CC)nn(-c2ccccc2)c1Oc1ccccc1F | inconclusive: 39.8 µM [inhibitor, partial curve, poor fit] |  |  |
| CCNC(=O)N1CCOc2ccc(CCC(=O)Nc3ccc(F)cc3F)cc2C1 | active: 39.8 µM |  |  |
| O=C(C1CCC(N2Cc3cccn3C2=O)CC1)C1CCN(C(=O)c2ccccc2)CC1 (centres undefined) | inconclusive: 50.1 µM [inhibitor, partial curve, poor fit] |  |  |
| CC(C)c1ccc(C(=O)N2CCC3(CC2)OC(=O)N(CC2CC2)C3(C)c2cccnc2)cc1 (centres undefined) | inconclusive: 79.4 µM [inhibitor, single point] |  |  |
| CC1CCN(c2ccc(CNC(=O)c3ccc4c(c3)C(O)CCCCCN4C)cc2)CC1 (centres undefined) | inconclusive: 50.1 µM [inhibitor, partial curve, poor fit] |  |  |
| c1ccc(CN2CCc3c(sc4ncnc(N5CCOCC5)c34)C2)cc1 | inconclusive: 89.1 µM [inhibitor, single point] |  |  |
| O=c1c2nc(-c3ccccc3)ccc2ncn1Cc1ccccn1 |  | inactive: -10.4% [at 172 µM] |  |
| CC(C)N1C(=O)Cc2ccccc2C1C(=O)NCc1ccccc1Br (centres undefined) | inconclusive: 35.5 µM [inhibitor, partial curve, poor fit] |  |  |
| CC(=O)N1CCN(C(=O)C2CCCN2Cc2ccc(-c3cc(C)cc(C)c3)cc2)CC1 (centres undefined) | inconclusive: 89.1 µM [inhibitor, single point] |  |  |
| c1c(CN2CCCC3(CCCO3)CC2)nn2c1CNCCC2 (centres undefined) |  | inactive: -9.53% |  |
| COc1ccc(NC(=O)c2cnc3c(c2)N(C(=O)Cc2ccc(C(C)C)cc2)CCC3)cc1OC | active: 31.6 µM |  |  |
| CCN1c2cc(C(=O)Nc3ccc(Cl)cc3)ccc2C(=O)N2CCCCCC21 (centres undefined) | active: 44.7 µM |  |  |
| c1ccc(CN[C@H]2CO[C@H]3[C@@H]2OC[C@@H]3n2cc(CC3CCCCC3)nn2)cc1 | inconclusive: 56.2 µM [inhibitor, full curve, poor fit] |  |  |
| COc1ccccc1Nc1ccnc(N2CCC(NC(=O)c3ccccc3C)CC2)n1 | inconclusive: 50.1 µM [inhibitor, partial curve, poor fit] |  |  |

| SMILES | Potency | activity change, negative = cytotoxicity | outcome |
| --- | --- | --- | --- |
| COc1ccc(NC(=O)N2CCc3c(c4ccccc4n3C)C2)cc1 | inconclusive: 89.1 µM [inhibitor, single point] |  |  |
| CCOC(=O)CC(=O)N1CCC2(CC1)[C@H](C(=O)OCC)[C@@H](O)C(=O)N2Cc1ccccc1 |  | inactive: -0.126% |  |
| COc1ccc(CNC(=O)C2=NO[C@@H]3CN(c4ccccn4)C[C@H]23)cc1OC | inconclusive: 100 µM [inhibitor, partial curve, poor fit] |  |  |
| OC[C@@H]1CN(Cc2ccco2)C[C@H]1c1ccccn1 |  | inactive: -7.52% |  |
| C=CCNC(=O)N[C@H]1C[C@H]2C(=O)Nc3ccc(-c4cccs4)cc3C(=O)N2C1 | inconclusive: 126 µM [inhibitor, single point] |  |  |
| COc1ccc(-c2ccnc3nc(C4CCC4)nn23)c(F)c1 | inconclusive: 44.7 µM [inhibitor, partial curve, poor fit] |  |  |
| COc1cccc(NC(=O)NC[C@H]2O[C@@H](CO)[C@@H](O)[C@H]2N(C)CCc2ccccc2)c1 |  | inactive: -1.6% |  |
| COC1CCC12CCN(S(=O)(=O)c1cccc(F)c1)CC2 (centres undefined) |  | inactive: -0.571% |  |
| C=CCNC(=O)N[C@H]1CCN2C(=O)c3ccccc3NC(=O)[C@@H]2C1 |  | inactive: -6.69% [at 172 µM] |  |
| Cc1nc(-c2cnccn2)n(CC(=O)Nc2ccc3c(c2)OCCO3)c(=O)c1C |  | inactive: 9.1% |  |
| Cc1cccc(CNC(=O)c2c(C)noc2-c2ccc(C(C)(C)C)cc2)c1 | inconclusive: 44.7 µM [inhibitor, partial curve] |  |  |
| COc1ncccc1Nc1cnc2ccc(N3CCOCC3)nn12 | inconclusive: 70.8 µM [inhibitor, partial curve] |  |  |
| Cc1ccc(-c2cn3cc(C(=O)NCc4cccc(C(F)(F)F)c4)nc3s2)cc1 |  | inactive: -11.4% |  |
| COC(=O)N1CCn2c(nn(-c3ccc(C)cc3)c2=O)C1 |  |  | inactive [at 172 µM] |
| COc1ccc(CCc2nc3nccc(-c4ccc5c(c4)OCCCO5)n3n2)cc1OC | active: 44.7 µM |  |  |
| COc1ccccc1-c1cccc(C(=O)N2CCN(C(=O)c3ccc(F)cc3)CC2)c1 | inconclusive: 56.2 µM [inhibitor, partial curve, poor fit] |  |  |
| CNC(=O)[C@H]1CN(C(=O)Cc2cccs2)[C@]2(C)C(=O)N(CCOC)c3ccccc3[C@H]12 | inconclusive: 35.5 µM [inhibitor, partial curve, poor fit] |  |  |
| O=C(NC1CCN(c2cc(-c3ccccc3)[nH]n2)CC1)c1ccc2c(c1)OCO2 | inconclusive: 50.1 µM [inhibitor, partial curve, poor fit] |  |  |
| COc1ccc(C2(C(=O)N3CCCCCC3c3nc(-c4cccnc4)no3)CC2)cc1 (centres undefined) | inconclusive: 79.4 µM [inhibitor, partial curve, poor fit] |  |  |
| CS(=O)(=O)c1ccc(CN2CCOC[C@H]2c2ncc(-c3ccc(F)cc3F)[nH]2)cc1 | inconclusive: 126 µM [inhibitor, single point] |  |  |
